Measurements taken from the BET-seq Pho4 binding data (Le et al. 2018).
The list shows a part of the results. These are noisy estimates, calculated here from bound and input reads.

These sequences were tested against T1, Pho4 (S. cerevisiae) (UniProt P07270) (assay: relative binding free energy (BET-seq); higher = weaker binding). Conditions: reference: library average.
T1 sequence: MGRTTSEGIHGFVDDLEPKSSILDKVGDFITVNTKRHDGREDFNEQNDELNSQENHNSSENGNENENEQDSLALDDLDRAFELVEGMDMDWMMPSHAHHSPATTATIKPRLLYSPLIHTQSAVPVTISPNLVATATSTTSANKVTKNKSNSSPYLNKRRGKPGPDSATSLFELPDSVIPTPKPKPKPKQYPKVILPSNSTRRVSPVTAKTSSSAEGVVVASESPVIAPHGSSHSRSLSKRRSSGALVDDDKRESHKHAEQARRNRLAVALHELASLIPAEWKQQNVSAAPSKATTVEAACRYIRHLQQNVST

| Sequence | relative binding free energy |
| --- | --- |
| CATAGCACGTGGAGGT | -0.1 kcal/mol |
| TGGGACACGTGAAGGC | 0.34 kcal/mol |
| AGTTGCACGTGGAGTT | -0.02 kcal/mol |
| GGATTCACGTGGGCGC | 0.3 kcal/mol |
| TTTAGCACGTGAGATG | 0.25 kcal/mol |
| CGAGGCACGTGGGGTA | -0.17 kcal/mol |
| AAAATCACGTGGGGCT | 0.11 kcal/mol |
| TTGGTCACGTGAGGGG | 0.26 kcal/mol |
| GTGTGCACGTGAATTG | 0.4 kcal/mol |
| GTGTGCACGTGTGACA | 0.02 kcal/mol |
| TAATGCACGTGTTGGA | 0 kcal/mol |
| TATCGCACGTGTGGTC | 0.25 kcal/mol |
| AGGCACACGTGAAGGG | 0.15 kcal/mol |
| GTTATCACGTGGGGGT | 0.02 kcal/mol |
| GTTGTCACGTGTGTAA | 0.15 kcal/mol |
| AGGGTCACGTGCGGGT | 0 kcal/mol |
| TTGGCCACGTGTAGGG | 0.01 kcal/mol |
| TATTGCACGTGTACTT | -0.01 kcal/mol |
| TATGCCACGTGTAGGG | -0.13 kcal/mol |
| GTATGCACGTGGGGCT | -0.15 kcal/mol |
| CTGGTCACGTGGCGCT | 0.06 kcal/mol |
| GGTAACACGTGTTTTA | -0.03 kcal/mol |
| TGTTCCACGTGAGGGA | 0.39 kcal/mol |

| Sequence | relative binding free energy |
| --- | --- |
| GTTTTCACGTGAAAGA | 0.33 kcal/mol |
| ATGGACACGTGCGCGG | 0.01 kcal/mol |
| GGGCACACGTGGTTGT | -0.02 kcal/mol |
| TAGTTCACGTGGCAGG | 0.23 kcal/mol |
| TAATTCACGTGATGCT | 0.31 kcal/mol |
| TGTGTCACGTGATTCG | 0.25 kcal/mol |
| TTGCGCACGTGACGGT | -0.11 kcal/mol |
| ACGTCCACGTGGGGTT | -0.19 kcal/mol |
| TTGGCCACGTGGATGA | 0.05 kcal/mol |
| GTTGTCACGTGCGTAT | 0.03 kcal/mol |
| TGATACACGTGGGTGG | -0.14 kcal/mol |
| ATGCTCACGTGGGCTG | 0.04 kcal/mol |
| AGGTCCACGTGAGGGA | 0.06 kcal/mol |
| GCAGTCACGTGGGGGT | 0.03 kcal/mol |
| GTAGGCACGTGGCGAG | -0.25 kcal/mol |
| TTATGCACGTGCTATT | -0.02 kcal/mol |
| GGGGGCACGTGGGCAG | -0.2 kcal/mol |
| GTTCTCACGTGGTAGG | 0.21 kcal/mol |
| AGTTTCACGTGTCCTT | 0.41 kcal/mol |
| CTAGGCACGTGATAGG | -0.04 kcal/mol |
| GGTTTCACGTGAGAAC | 0.49 kcal/mol |
| GTAGTCACGTGGGAAG | 0.11 kcal/mol |
| GGATGCACGTGTATAG | 0.21 kcal/mol |

| Sequence | relative binding free energy |
| --- | --- |
| GGGTGCACGTGCCTGA | 0.03 kcal/mol |
| GCCTTCACGTGGGGAG | 0.2 kcal/mol |
| TCGATCACGTGTGAGT | 0.39 kcal/mol |
| TTGATCACGTGTTTTA | 0.16 kcal/mol |
| GTTCGCACGTGAAGCG | 0.37 kcal/mol |
| AACGTCACGTGTGTGT | 0.13 kcal/mol |
| ATTATCACGTGCTTTG | 0.05 kcal/mol |
| CAGGTCACGTGAGTAT | 0.36 kcal/mol |
| GTGAGCACGTGGATGA | -0.04 kcal/mol |
| CTGGGCACGTGGTTTC | -0.1 kcal/mol |
| CATGGCACGTGTGCGG | -0.15 kcal/mol |
| GATGACACGTGTTGAT | 0.06 kcal/mol |
| TTTTACACGTGTAAGA | 0.26 kcal/mol |
| GAAGTCACGTGTATGT | 0.13 kcal/mol |
| ATGGGCACGTGCGTAT | -0.13 kcal/mol |
| GGAATCACGTGGAGTA | 0.2 kcal/mol |
| TTGATCACGTGTCGTG | 0.16 kcal/mol |
| TAATTCACGTGTATAA | 0.19 kcal/mol |
| GTGCTCACGTGGTTGG | 0.32 kcal/mol |
| TTGGGCACGTGGCTGT | -0.08 kcal/mol |
| GTGCTCACGTGTTTGT | 0.17 kcal/mol |
| GTTGCCACGTGCGGTG | -0.07 kcal/mol |
| TTTCACACGTGATGTT | 0.3 kcal/mol |

| Sequence | relative binding free energy |
| --- | --- |
| TCTGTCACGTGTCAGG | 0.01 kcal/mol |
| AGAGGCACGTGGGCTA | -0.29 kcal/mol |
| TTTTACACGTGAAATT | 0.38 kcal/mol |
| GTGTGCACGTGCATTG | 0.13 kcal/mol |
| ATTAGCACGTGAATTT | 0.17 kcal/mol |
| CTGTACACGTGTAAGT | 0.18 kcal/mol |
| AGTGCCACGTGTGGTA | 0.08 kcal/mol |
| TATAACACGTGCAGGT | 0.1 kcal/mol |
| GCTGGCACGTGGTGAA | -0.1 kcal/mol |
| TAATGCACGTGTTTTC | 0.1 kcal/mol |
| TAACGCACGTGTTAGG | -0.13 kcal/mol |
| TGGACCACGTGGGAGT | -0.12 kcal/mol |
| AGACTCACGTGGGGTG | 0.05 kcal/mol |
| ATCAGCACGTGGATGG | -0.06 kcal/mol |
| GTGAGCACGTGCTAGG | -0.26 kcal/mol |
| ATTTACACGTGCGTAT | -0.01 kcal/mol |
| TAGGACACGTGGGTCC | 0.23 kcal/mol |
| GGTGTCACGTGTCAGA | 0.23 kcal/mol |
| GGGAGCACGTGGTTCT | -0.09 kcal/mol |
| GCAGGCACGTGTGTGA | -0.08 kcal/mol |
| TCTTACACGTGTATGG | 0.1 kcal/mol |
| AGATGCACGTGGGTAA | -0.27 kcal/mol |
| GAGCGCACGTGGGAGG | -0.22 kcal/mol |

| Sequence | relative binding free energy |
| --- | --- |
| GAGGCCACGTGGATGG | -0.05 kcal/mol |
| AGGAACACGTGTGTAT | -0.02 kcal/mol |
| ATACACACGTGTATGG | 0.07 kcal/mol |
| CATGTCACGTGGCTGG | 0.02 kcal/mol |
| TACGACACGTGGTGTA | -0.05 kcal/mol |
| CGTCTCACGTGTGATG | 0.19 kcal/mol |
| GGCGGCACGTGCGGTT | -0.14 kcal/mol |
| ATAAGCACGTGGATAT | 0.01 kcal/mol |
| GATGTCACGTGATTGC | 0.2 kcal/mol |
| TAGATCACGTGAGTTG | 0.25 kcal/mol |
| TAAGGCACGTGTTGAA | -0.16 kcal/mol |
| CGTTTCACGTGTTATG | 0.15 kcal/mol |
| TGTTTCACGTGGAGGT | 0.26 kcal/mol |
| GATATCACGTGTGGTC | 0.16 kcal/mol |
| GCGGTCACGTGATTGG | 0.37 kcal/mol |
| ATAGGCACGTGATCGG | -0.18 kcal/mol |
| AGATCCACGTGTTGGG | 0.1 kcal/mol |
| TTGGTCACGTGAGAAT | 0.35 kcal/mol |
| TTTATCACGTGTAATC | 0.27 kcal/mol |
| TTCGTCACGTGGTGTT | 0.12 kcal/mol |
| GTCGGCACGTGGTATT | 0.03 kcal/mol |
| CGGTGCACGTGCGGTG | -0.09 kcal/mol |
| TCAGACACGTGTGTGG | 0.1 kcal/mol |
